Numbering of substitutions follows the chain as printed. No constants are given. Whether binding was seen depends on the method and setting. Some binding calls cover weakened binding; strength is not graded here.
T1: Elp3-TAP (S. cerevisiae) (UniProt Q02908)
T1 sequence: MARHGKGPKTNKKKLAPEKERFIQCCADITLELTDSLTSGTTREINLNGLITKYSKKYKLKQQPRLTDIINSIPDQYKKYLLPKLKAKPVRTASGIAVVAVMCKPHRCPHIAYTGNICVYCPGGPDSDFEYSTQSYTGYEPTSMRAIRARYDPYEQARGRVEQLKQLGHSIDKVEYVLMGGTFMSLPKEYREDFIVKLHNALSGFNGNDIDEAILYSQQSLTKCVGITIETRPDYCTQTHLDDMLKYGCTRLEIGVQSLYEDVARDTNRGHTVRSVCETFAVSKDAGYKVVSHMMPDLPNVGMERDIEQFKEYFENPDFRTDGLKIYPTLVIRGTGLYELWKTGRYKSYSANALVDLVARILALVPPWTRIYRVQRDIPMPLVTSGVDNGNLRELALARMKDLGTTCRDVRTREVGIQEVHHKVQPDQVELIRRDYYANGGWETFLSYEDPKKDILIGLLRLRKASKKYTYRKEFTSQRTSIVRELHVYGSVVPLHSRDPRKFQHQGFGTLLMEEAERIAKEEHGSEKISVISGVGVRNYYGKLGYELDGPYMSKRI

T2: Elp5-TAP (S. cerevisiae) (UniProt P38874)
T2 sequence: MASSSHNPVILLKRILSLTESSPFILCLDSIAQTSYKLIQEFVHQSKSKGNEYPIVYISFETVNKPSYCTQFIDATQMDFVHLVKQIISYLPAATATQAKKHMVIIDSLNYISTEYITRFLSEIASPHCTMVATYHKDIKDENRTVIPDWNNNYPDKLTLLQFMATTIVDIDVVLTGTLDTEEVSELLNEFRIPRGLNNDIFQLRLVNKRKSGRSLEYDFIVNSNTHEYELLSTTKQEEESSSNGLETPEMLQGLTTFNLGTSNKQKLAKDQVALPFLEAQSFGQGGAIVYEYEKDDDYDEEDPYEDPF

T3: Elp2-TAP (S. cerevisiae) (UniProt P42935)
T3 sequence: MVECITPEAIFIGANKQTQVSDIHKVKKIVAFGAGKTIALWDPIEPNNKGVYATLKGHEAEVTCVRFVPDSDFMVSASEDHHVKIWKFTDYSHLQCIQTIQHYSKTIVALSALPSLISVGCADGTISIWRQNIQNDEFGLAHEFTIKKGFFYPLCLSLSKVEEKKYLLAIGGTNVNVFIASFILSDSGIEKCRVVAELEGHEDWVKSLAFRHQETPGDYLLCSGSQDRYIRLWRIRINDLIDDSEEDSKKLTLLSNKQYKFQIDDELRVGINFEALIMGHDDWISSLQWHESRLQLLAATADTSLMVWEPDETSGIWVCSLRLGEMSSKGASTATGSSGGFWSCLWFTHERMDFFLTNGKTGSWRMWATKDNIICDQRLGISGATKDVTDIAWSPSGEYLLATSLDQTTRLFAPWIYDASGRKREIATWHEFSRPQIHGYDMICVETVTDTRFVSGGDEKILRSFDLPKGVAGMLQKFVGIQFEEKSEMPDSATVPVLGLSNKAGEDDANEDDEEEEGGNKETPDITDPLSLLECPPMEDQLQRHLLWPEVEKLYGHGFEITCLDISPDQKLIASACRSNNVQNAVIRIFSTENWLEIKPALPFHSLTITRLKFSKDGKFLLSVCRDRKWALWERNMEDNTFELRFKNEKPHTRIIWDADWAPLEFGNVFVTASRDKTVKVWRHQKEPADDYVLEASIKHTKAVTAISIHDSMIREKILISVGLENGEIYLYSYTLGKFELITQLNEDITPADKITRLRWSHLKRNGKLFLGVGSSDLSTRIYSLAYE

B1: Elp1 (protein, UniProt Q06706 1-1349)
chain: MVEHDKSGSKRQELRSNMRNLITLNKGKFKPTASTAEGDEDDLSFTLLDSVFDTLSDSITCVLGSTDIGAIEVQQFMKDGSRNVLASFNIQTFDDKLLSFVHFADINQLVFVFEQGDIITATYDPVSLDPAETLIEIMGTIDNGIAAAQWSYDEETLAMVTKDRNVVVLSKLFEPISEYHLEVDDLKISKHVTVGWGKKETQFRGKGARAMEREALASLKASGLVGNQLRDPTMPYMVDTGDVTALDSHEITISWRGDCDYFAVSSVEEVPDEDDETKSIKRRAFRVFSREGQLDSASEPVTGMEHQLSWKPQGSLIASIQRKTDLGEEDSVDVIFFERNGLRHGEFDTRLPLDEKVESVCWNSNSEALAVVLANRIQLWTSKNYHWYLKQELYASDISYVKWHPEKDFTLMFSDAGFINIVDFAYKMAQGPTLEPFDNGTSLVVDGRTVNITPLALANVPPPMYYRDFETPGNVLDVACSFSNEIYAAINKDVLIFAAVPSIEEMKKGKHPSIVCEFPKSEFTSEVDSLRQVAFINDSIVGVLLDTDNLSRIALLDIQDITQPTLITIVEVYDKIVLLRSDFDYNHLVYETRDGTVCQLDAEGQLMEITKFPQLVRDFRVKRVHNTSAEDDDNWSAESSELVAFGITNNGKLFANQVLLASAVTSLEITDSFLLFTTAQHNLQFVHLNSTDFKPLPLVEEGVEDERVRAIERGSILVSVIPSKSSVVLQATRGNLETIYPRIMVLAEVRKNIMAKRYKEAFIVCRTHRINLDILHDYAPELFIENLEVFINQIGRVDYLNLFISCLSEDDVTKTKYKETLYSGISKSFGMEPAPLTEMQIYMKKKMFDPKTSKVNKICDAVLNVLLSNPEYKKKYLQTIITAYASQNPQNLSAALKLISELENSEEKDSCVTYLCFLQDVNVVYKSALSLYDVSLALLVAQKSQMDPREYLPFLQELQDNEPLRRKFLIDDYLGNYEKALEHLSEIDKDGNVSEEVIDYVESHDLYKHGLALYRYDSEKQNVIYNIYAKHLSSNQMYTDAAVAYEMLGKLKEAMGAYQSAKRWREAMSIAVQKFPEEVESVAEELISSLTFEHRYVDAADIQLEYLDNVKEAVALYCKAYRYDIASLVAIKAKKDELLEEVVDPGLGEGFGIIAELLADCKGQINSQLRRLRELRAKKEENPYAFYGQETEQADDVSVAPSETSTQESFFTRYTGKTGGTAKTGASRRTAKNKRREERKRARGKKGTIYEEEYLVQSVGRLIERLNQTKPDAVRVVEGLCRRNMREQAHQIQKNFVEVLDLLKANVKEIYSISEKDRERVNENGEVYYIPEIPVPEIHDFPKSHIVDF
B2: elp3-5 (protein, UniProt Q02908 1-557)
chain: T1 sequence with Y540A, Y541A
B3: wild type Elp3 expressed from a plasmid (protein, UniProt Q02908 1-557)
chain: T1 sequence
B4: elp3-4 (protein, UniProt Q02908 1-557)
chain: T1 sequence with G168R
B5: Elp2 (protein, UniProt P42935 1-788)
chain: T3 sequence
B6: elp3-2 (protein, UniProt Q02908 1-557)
chain: T1 sequence with C118A, C121A
B7: elp3-3 (protein, UniProt Q02908 1-557)
chain: T1 sequence with G180R, G181R

Assays:
Assay in all cases: tandem affinity purification; TAP-tagged subunit purified from yeast lysate (IgG sepharose, TEV elution, calmodulin beads; buffer A 25 mM Tris pH 8.0, 100 mM NaCl), co-purified proteins on SDS-PAGE, silver staining; strains: wild type, elp3Δ, or elp3Δ with plasmids for wild type Elp3 or elp3 mutants
[1] = biological target: T1, Elp3-TAP (S. cerevisiae)
[2] = biological target: T2, Elp5-TAP (S. cerevisiae)
[3] = biological target: T3, Elp2-TAP (S. cerevisiae)

Binder	binding [1]	binding [2]	binding [3]
B1	binds	binds	–
B2	–	binds	binds
B3	–	binds	binds
B4	–	–	binds
B5	binds	–	–
B6	–	no binding	no binding
B7	–	no binding	no binding

Source: PMC2757915, “The Elongator Complex Interacts with PCNA and Modulates Transcriptional Silencing and Sensitivity to DNA Damage Agents” (PLoS Genetics, 2009)
